PubChem BioAssay AID2107 (National Center for Advancing Translational Sciences (NCATS), 2009)
About 20 (0.008%) of roughly 240,000 compounds were called active. This list was built around the results that the source calls inconclusive (neither active nor inactive); the mix of calls is not that of the screen. Calls come from the whole dose curve; as a rule, active = well fitted inhibition curve with a large enough effect; inconclusive = small, poorly fitted or top-dose-only effect, or effect the other way; inactive = flat fitted curve, though single readings scatter. Potencies of inconclusive entries are left out as doubtful fits.

molecular target: Alpha-galactosidase A (Homo sapiens) (UniProt P06280); assay: qHTS Assay for Inhibitors and Activators of Human alpha-Galactosidase From Spleen Homogenate; details: 4MU-alpha-Gal fluorescence, 40 min; activity change, negative = inhibition: at 80 µM (top of the series);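 for activity change, negative = inhibition: 0% = enzyme with vehicle and -100% = no enzyme basal signal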
Chain of UniProt P06280 (P06280 whole entry, looked up): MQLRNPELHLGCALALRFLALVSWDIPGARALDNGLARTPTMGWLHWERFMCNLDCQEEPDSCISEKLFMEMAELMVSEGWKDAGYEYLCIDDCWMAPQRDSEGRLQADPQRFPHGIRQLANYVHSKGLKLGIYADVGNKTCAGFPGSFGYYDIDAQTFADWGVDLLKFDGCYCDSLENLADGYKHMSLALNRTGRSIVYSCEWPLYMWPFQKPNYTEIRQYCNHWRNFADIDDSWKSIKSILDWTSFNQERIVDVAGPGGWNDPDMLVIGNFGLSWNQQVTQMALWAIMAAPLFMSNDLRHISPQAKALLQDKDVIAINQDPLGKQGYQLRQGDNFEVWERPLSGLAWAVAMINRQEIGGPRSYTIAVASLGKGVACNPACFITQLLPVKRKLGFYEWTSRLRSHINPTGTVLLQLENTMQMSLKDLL
Summary of the method: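 Fluorogenic readout (Ex 365/Em 440 nm) of 4-methylumbelliferone released from 1 mM 4-MU-alpha-galactoside by spleen homogenate, 40 min at 37C, pH 5.0. Data normalized to no-enzyme and enzyme controls; Hill-equation AC50 from compound titrations.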
Potency is the fitted concentration of half-maximal effect; tags give direction and shape of the fitted curve.

SMILES | activity change, negative = inhibition | Potency
COC(=O)CC1C(C)(C)C(=O)C2CC3C4=CC(=O)OC(c5ccoc5)[C@]4(C)CCC3[C@@]1(C)C2=O (some centres not stated) | inactive: 4.5% | 
CC(=O)Nc1ccc(SCC(CC(C)C)N2CCN(C)CCC2=O)cc1 (configuration not stated) | inactive: 3.18% | 
CN(C)CCCNS(=O)(=O)c1ccc(N2CCC(c3ccc(Cl)cc3)=N2)cc1 |  | inconclusive [activator, partial curve]
CCOC(=O)C1=C(C)NC2=C(C(=O)CC(C)(C)C2)C1c1cccc(C)n1 (configuration not stated) |  | inconclusive [activator, partial curve, poor fit]
O=C(OC1CCOC1=O)c1cc(-c2cccs2)nc2ccccc12 (configuration not stated) |  | inconclusive [activator, partial curve]
COc1ccc(CNc2cc(-c3ccoc3)ncn2)c(OC)c1 |  | inconclusive [inhibitor, partial curve, poor fit]
CCC1Oc2ccc(C)cc2N(CC(=O)NCc2ccccc2OC)C1=O (configuration not stated) |  | inconclusive [inhibitor, full curve, poor fit]
O=C(Cc1ncc(C(F)(F)F)cc1Cl)NCCc1ccccc1 |  | inconclusive [inhibitor, partial curve]
Cc1cc(C)nc(SCCS(=O)(=O)Cc2ccccc2)n1 |  | inconclusive [inhibitor, single point]
COc1ccc(C(=O)N2CCC3(CCCN(C(=O)NC(C)C)C3)CC2)cc1 | inactive: -10.6% | 
O=C(c1ccc(S(=O)(=O)Cc2cc(F)ccc2F)c([N+](=O)[O-])c1)N1CCCCC1 | inactive: -5.76% | 
CCCCCCCCOc1ccc(C2OC34CCCCC3C(C#N)(C#N)C2(C#N)C(=N)O4)cc1 (configuration not stated) |  | inconclusive [activator, single point]
c1ccc(Cn2c(-c3ccco3)nc3nc4ccccc4nc32)cc1 |  | inconclusive [activator, partial curve]
Cc1cccc(-n2c3nc(=O)[nH]c(=O)c-3cc3c(C)nn(-c4ccccc4)c32)c1C |  | inconclusive [activator, full curve, poor fit]
COc1ccccc1C(=O)Nc1nc2nc(-c3ccccc3)cc(=O)n2[nH]1 |  | inconclusive [inhibitor, single point]
Cc1ccc(-c2cc(-c3ccc4c(c3)OCO4)c(C#N)c(N)n2)o1 |  | inconclusive [activator, partial curve]
CCN1CCN(CCCNC(=O)c2cc3cc4ccc(OC)cc4nc3o2)CC1 |  | inconclusive [activator, partial curve]
O=C(Cc1ccc(S(=O)(=O)N2CCCC2)s1)Nc1nc2c(s1)CCCC2 | inactive: -23.1% | 
Cc1cc(-c2c(C)[nH]n(-c3ccc(Cl)cc3)c2=O)n[nH]1 | inactive: 5.67% | 
COc1ccc(CNc2ccnc(-c3cccc(C#N)c3)n2)c(OC)c1 |  | inconclusive [inhibitor, single point]
COc1ccc(-c2nn(-c3ccccc3)cc2/C=C/C(=O)O)cc1[N+](=O)[O-] |  | inconclusive [inhibitor, single point]

SMILES | activity change, negative = inhibition | Potency
O=CNC1CCCc2c1[nH]c1ccc(Cl)cc21 (configuration not stated) |  | inconclusive [activator, single point]
CC1CCC(C(C)C)C2=C1C(C#N)(C#N)C(C#N)(C#N)C(c1ccccc1)N2 (configuration not stated) |  | inconclusive [activator, single point]
COc1cc(/C=N/N=C(/C(=O)c2ccccc2)c2ccccc2)cc(OC)c1O |  | inconclusive [inhibitor, partial curve]
Cc1cc(C)c2[nH]c(=O)c(CN(Cc3ccco3)C(=O)c3cccs3)cc2c1 | inactive: 8.63% | 
Cc1ccc(-n2c(SCC(=O)NCc3ccco3)nc3sc4c(c3c2=O)CC(C)(C)SC4)cc1 |  | inconclusive [inhibitor, full curve, poor fit]
COc1ccc(C2C=C(c3ccc(C)cc3)Nc3ncnn32)cc1 (configuration not stated) |  | inconclusive [activator, partial curve]
CC(=O)c1cc2cc(O)ccc2o1 |  | inconclusive [activator, partial curve]
COC(=O)c1ccc(C(=O)OC)c(NC(=S)N2CCOCC2)c1 |  | inconclusive [activator, partial curve, poor fit]
COC(=O)[C@@H](N)Cc1ccc(O)c(O)c1 | inactive: 10.5% | 
CC1=CC=CC2=NC(=O)CC(C)(C(=O)O)N12 (configuration not stated) |  | inconclusive [activator, single point]
COc1ccc(-c2noc(CN3CCN(c4ccccc4F)CC3)n2)cc1OC |  | inconclusive [inhibitor, single point]
Nc1c(S(=O)(=O)c2cccs2)c2nc3ccccc3nc2n1CC1CCCO1 (configuration not stated) |  | inconclusive [activator, partial curve]
COCCCN(C(=S)NC(=O)C(C)(C)C)c1c(N)n(Cc2ccccc2)c(=O)[nH]c1=O | inactive: -0.701% | 
Cc1cccn2c(=O)c3cc(C#N)c(=NC(=O)c4cccs4)n(CCCOC(C)C)c3nc12 |  | inconclusive [activator, full curve]
CC(C)OCCCN1CN(S(=O)(=O)c2ccc(Cl)cc2)c2nc3ccccc3nc21 |  | inconclusive [activator, single point]
CCOC(=O)c1sc2nc3n(c(=O)c2c1C)CCC3 | inactive: 2.18% | 
Clc1cccc(Cl)c1CSc1cc2c(nn1)-c1ccccc1CC2 | inactive: -3.32% | 
CCC(C(=O)O)C1CCC(C)C(C(C)C(O)C(C)C(=O)C(CC)C2OC3(C=CC(O)[C@@]4(CC[C@](C)(C5CC[C@@](O)(CC)C(C)O5)O4)O3)C(C)CC2C)O1 (some centres not stated) | inactive: -5.8% | 
CCOC(=O)c1sc(NC(NC(=O)c2ccco2)(C(=O)OC)C(F)(F)F)nc1C (configuration not stated) |  | inconclusive [activator, single point]
CCNc1ncc2nc(-c3cc(F)cc(F)c3)c(=O)n(CCC#N)c2n1 |  | inconclusive [activator, single point]
Cc1cc(NC(=O)CCN2CCC(C(N)=O)CC2)ccc1Br | inactive: -1.21% | 
